Experimental data from article PMC6919601, “Identification of Plasmodium dipeptidyl aminopeptidase allosteric inhibitors by high throughput screening” (PLoS ONE, 2019).
Where “and” joins values, the source holds several entries; their conditions need not be identical. Identical values can stand only once. The whole screen tested about 110,000 compounds, of which about 230 (0.21%) showed an effect of 50% or more. This is one part of the list.

Each molecule was assayed against DPAP1 (Plasmodium falciparum, UniProt Q8IIJ9) (assay: primary screen, percent inhibition; read by cleavage of a fluorogenic dipeptide substrate; higher = more effect of the substance).
Parameters: species or system P. falciparum D10 trophozoite lysates; single well
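Note: 30 min substrate incubation versus DMSO and 10 µM JCP410 controls.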

Sequence of DPAP1 (Q8IIJ9 whole entry, looked up): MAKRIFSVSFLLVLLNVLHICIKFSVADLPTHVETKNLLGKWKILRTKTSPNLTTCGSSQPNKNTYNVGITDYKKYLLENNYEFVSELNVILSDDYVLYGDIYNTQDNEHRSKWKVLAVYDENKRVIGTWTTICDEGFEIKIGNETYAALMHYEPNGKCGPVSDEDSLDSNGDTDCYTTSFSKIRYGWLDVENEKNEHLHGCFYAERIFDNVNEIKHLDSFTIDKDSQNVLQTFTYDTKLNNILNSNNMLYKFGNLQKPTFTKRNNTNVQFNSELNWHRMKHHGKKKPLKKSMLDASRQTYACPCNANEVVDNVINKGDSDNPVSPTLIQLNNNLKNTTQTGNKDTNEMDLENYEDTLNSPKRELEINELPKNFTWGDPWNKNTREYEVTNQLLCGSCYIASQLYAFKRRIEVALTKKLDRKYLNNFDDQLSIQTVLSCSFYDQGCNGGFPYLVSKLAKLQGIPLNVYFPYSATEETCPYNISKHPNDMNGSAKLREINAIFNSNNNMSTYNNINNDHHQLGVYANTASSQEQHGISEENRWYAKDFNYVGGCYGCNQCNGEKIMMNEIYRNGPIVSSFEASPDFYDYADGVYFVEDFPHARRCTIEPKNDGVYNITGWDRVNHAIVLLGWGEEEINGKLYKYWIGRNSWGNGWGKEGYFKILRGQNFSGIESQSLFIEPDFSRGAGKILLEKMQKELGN

SMILES	% Inhibition @ 10 uM
COc1ccc(C2=NN(c3cccc(F)c3)C(c3ccc(OC)cc3)C2)cc1 (centres unmarked)	0.132%
O=C1NC(=S)S/C1=C1\C(=O)Nc2ccccc21	5.48%
CCC(C)NC(=O)NS(=O)(=O)c1ccccc1Cl (centres unmarked)	-2.51%
CO/C(O)=C1\C(C)=NC2=C(C(=O)CCC2)C1c1ccc(Cl)c(Cl)c1 (centres unmarked)	4.54%
COc1ccc(-c2nc(C3CCCN(S(=O)(=O)c4ccc(OC(F)(F)F)cc4)C3)no2)cc1 (centres unmarked)	-1.07%
CCN(CC)CCCOc1ccc(C)cc1	1.13%
O=c1c2cccnc2nc(SCc2cc(=O)n3cc(Cl)ccc3n2)n1Cc1ccccc1	0.0579%
Cc1ccccc1-c1cc(C(=O)N[C@@H](CC(C)C)C(=O)NCC#N)sc1-c1ccccc1C	-4.72%
CCN(CC)CCNC1=Nc2ccccc2CCC1	-3.93%
COc1cc2c(cc1OC)CN(C(=O)c1sc3nc4c(c(C(F)(F)F)c3c1N)CCC4)CC2	6.69%
COc1cccc(N2CCN(Cc3cccs3)CC2)c1	-3.57%
CC(C)CC(C(=O)NCC#N)c1cccc(N2CCN(C)CC2)c1 (centres unmarked)	-0.0222%
Cc1ccc2oc3c(c(=O)c2c1)C(c1ccccc1F)N(Cc1ccc2c(c1)OCO2)C3=O (centres unmarked)	-1.33%
O=C(CC(c1cccs1)N1Cc2ccccc2C1=O)N1CCc2ccccc2C1 (centres unmarked)	-4.59%
COc1cccc(C2C(C#N)=C(N)Oc3[nH]nc(C)c32)c1OCc1ccc(Br)cc1 (centres unmarked)	-5.34%
CCc1ccc(-c2cc3c(=O)n(CC(=O)NC4CCN(Cc5ccccc5)CC4)nc(C)n3n2)cc1	3.67%
CCOc1ccc(C2=Nn3c(nnc3-c3ccccc3Br)SC2)cc1	-4.01%
CN(Cc1ccccc1)C(=O)c1cccc(C(=O)N(C)Cc2ccccc2)c1	-1.22%
CC(C)C(=O)NCC(C)(C)CNC(=O)C(C)C	4.11%
COc1ccc(C(=O)NCC2(c3ccc(OC)c(OC)c3)CCCC2)c(OC)c1	5.55%
CC(C)(C)Nc1nc(Cl)nc(Nc2ccc(Cl)cc2)n1	-4.31%

SMILES	% Inhibition @ 10 uM
FC(F)(F)c1cc(-c2ccco2)nc(-n2nnc3ccccc32)n1	0.552%
COc1ccccc1C(=O)N/C(=C\c1ccccc1)C(=O)NC(CC(C)C)C(=O)O (centres unmarked)	5.55%
Cc1[nH]c2ccccc2c1CN1CCN(c2ccccc2F)CC1	3.8%
Nc1nc(-c2cccc(Br)c2)cs1	3.95%
CCN(CC)C(=O)Nc1cn(C)c(=O)c2ccccc12	4.44%
COc1ccc(-c2c(C)nn3c(N4CC(C)CC(C)C4)cc(C)nc23)cc1OC (centres unmarked)	-5.58%
Cc1ccc(CCNC(=O)Cn2ccc3cc(S(=O)(=O)N4CCC(C)CC4)ccc32)cc1	-0.899%
CC(=O)c1cccc(NS(=O)(=O)c2cc(Cl)ccc2Cl)c1	0.687% and -6.66%
OC(CC#CCN1CCCC1)(c1ccccc1)c1ccccc1	0.962%
O=C(c1cccnc1)N1N=C(C(F)(F)F)C2CCCCCC21O (centres unmarked)	-5.15%
CC(=O)c1cccc(NC(=O)Cn2nc(C(F)F)cc2C)c1	-1.78%
CCOC(=O)C1CCN(Cc2ccc(Br)s2)CC1	1.55%
Cc1ccc(OCC(=O)Nc2cccc3ccccc23)c(C)c1	-1.42%
C=CCNC(=O)c1cc(-c2ccccn2)nc2ccc(S(=O)(=O)N3CCOCC3)cc12	-4.97%
Cc1ccc(C(=O)N(CCCN(C)C)c2nc3c(F)cccc3s2)cc1	4.68%
COc1ccc(-c2cc(C(F)(F)F)n3nc(C(=O)NCc4cnn(C)c4C)cc3n2)cc1OC	2.32%
CC1=C(c2ccc(C)c(C)c2)S(=O)(=O)N=C1N1CCC(C(=O)NCCCN2CCOCC2)CC1	-1.56%
O=C(Nc1nc(-c2ccc(Cl)cc2)cs1)c1cncc(Br)c1	6.65%
O=C(C1COc2cc(S(=O)(=O)N3CC=C(c4ccccc4)CC3)ccc2O1)N1CCCCC1 (centres unmarked)	-1.02%
NC(=O)c1cc(S(=O)(=O)N2CCC(c3ccccc3)C2)cs1 (centres unmarked)	-1.23%
O=S(=O)(Nc1cccc(O)c1)c1ccc(-c2ccccc2)cc1	-0.294%

SMILES	% Inhibition @ 10 uM
CCSc1ncc(Cl)c(C(=O)NCc2ccc(C)cc2)n1	2.19%
CN1CCN(S(=O)(=O)c2ccc([N+](=O)[O-])cc2)CC1	-0.856%
CCCCNc1sc(S(=O)(=O)CC)nc1S(=O)(=O)c1ccc(Cl)cc1	4.33%
O=C(Cn1ncc2c3ccccc3n(Cc3ccccc3)c2c1=O)NCCCN1CCCC1=O	7.91%
CC(=O)N1CCN(c2cccc(C)c2C)CC1	4.83%
Cc1cccc(OCCOCCN2CCNCC2)c1C	-3.69%
CCOc1ccc(NC(=O)CSc2nc(C(C)C)ccc2C#N)cc1	-5.34%
C/C(=C1\C(=O)N(c2nc3ccccc3s2)N=C1C(F)(F)F)N1CCN(CCO)CC1	-2.07%
CCn1c(C)c(C2=CCN(S(=O)(=O)c3cccc4nsnc34)CC2)c2ccccc21	-1.08%
CC1(C)N=C(N)N=C(N)N1c1ccc(Oc2ccc(Cl)cc2)c(Cl)c1	-1.42%
CC1CCC(NC(=O)C(C)n2ncn3cccc3c2=O)CC1 (centres unmarked)	-2.78%
COc1ccc(OCc2ccc(C(=O)O)cc2)cc1	-2.84%
CC(C)C[C@H](N)B1O[C@@H]2C[C@@H]3C[C@@H](C3(C)C)[C@]2(C)O1	-3.14%
Cc1nn(C)c(C)c1S(=O)(=O)N1CCC(C(=O)NCC2COc3ccccc3O2)CC1 (centres unmarked)	2.39%
CC(C)c1ccccc1OCC(=O)Nc1ccc(S(=O)(=O)N2CCCCCC2)cc1	0.913%
CCC1CCCCN1CCCNC(=O)C1CC(=O)N(CCc2ccccc2)C1 (centres unmarked)	-0.267%
COc1cc(NC(=O)c2cccc(Br)c2)c(OC)cc1Cl	0.317%
Cc1cc(C)cc(NC(=O)CN2C(=O)c3ccccc3S2(=O)=O)c1	-4.39%
O=C(C1CCCN(c2ncnc3c2nc2n3CCCCC2)C1)N1CCC(Cc2ccccc2)CC1 (centres unmarked)	11%
CCC(CC)c1nc(C#N)c(NC(C)c2ccccc2)o1 (centres unmarked)	-11.7%
